From PMC4336329 (PLoS ONE, 2015)
The whole screen tested about 310,000 compounds, of which about 14,000 (4.5%) showed an effect of 50% or more. The effect is printed as a negative number. This is one part of the list.

target: human ether-à-go-go-related gene (hERG) potassium channel (human, UniProt Q12809); experiment: primary screen, population patch clamp on CHO cells stably expressing hERG
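Further: peak tail current of the secondary pulse compared with the same well before compound.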

Chain of human ether-à-go-go-related gene (hERG) potassium channel (Q12809 whole entry, looked up): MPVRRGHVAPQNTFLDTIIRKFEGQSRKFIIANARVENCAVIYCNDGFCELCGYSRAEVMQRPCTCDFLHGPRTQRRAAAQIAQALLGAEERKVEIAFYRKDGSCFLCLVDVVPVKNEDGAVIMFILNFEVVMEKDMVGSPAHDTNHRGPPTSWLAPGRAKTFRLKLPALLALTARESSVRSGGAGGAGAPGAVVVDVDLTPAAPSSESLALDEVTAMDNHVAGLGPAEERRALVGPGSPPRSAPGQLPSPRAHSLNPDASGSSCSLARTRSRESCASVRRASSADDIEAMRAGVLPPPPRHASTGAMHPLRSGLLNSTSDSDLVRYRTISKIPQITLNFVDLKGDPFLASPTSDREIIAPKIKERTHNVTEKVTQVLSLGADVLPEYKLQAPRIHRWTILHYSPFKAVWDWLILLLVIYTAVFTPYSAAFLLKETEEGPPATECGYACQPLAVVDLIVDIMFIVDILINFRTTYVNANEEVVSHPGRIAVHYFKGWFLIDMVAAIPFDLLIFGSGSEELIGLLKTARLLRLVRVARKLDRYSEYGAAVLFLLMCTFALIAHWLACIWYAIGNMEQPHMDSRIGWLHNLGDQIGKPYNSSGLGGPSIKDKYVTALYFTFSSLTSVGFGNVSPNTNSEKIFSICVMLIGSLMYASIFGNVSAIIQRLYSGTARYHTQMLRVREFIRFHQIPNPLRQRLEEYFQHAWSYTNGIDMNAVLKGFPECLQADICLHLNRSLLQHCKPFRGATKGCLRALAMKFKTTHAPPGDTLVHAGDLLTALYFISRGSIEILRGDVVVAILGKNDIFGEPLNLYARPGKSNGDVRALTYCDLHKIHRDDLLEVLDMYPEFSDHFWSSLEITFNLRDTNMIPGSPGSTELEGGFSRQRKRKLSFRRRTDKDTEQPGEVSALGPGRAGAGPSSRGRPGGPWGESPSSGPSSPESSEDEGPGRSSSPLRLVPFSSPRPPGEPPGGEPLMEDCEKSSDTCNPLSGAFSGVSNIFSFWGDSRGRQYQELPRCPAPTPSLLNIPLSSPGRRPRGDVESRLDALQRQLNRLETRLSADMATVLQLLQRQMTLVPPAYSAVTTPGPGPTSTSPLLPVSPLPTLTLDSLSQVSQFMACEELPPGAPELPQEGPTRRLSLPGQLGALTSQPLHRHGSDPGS

Point of comparison: `C#CCOCCOCCOCCNc1nc(N2CCN(C(=O)Cn3cc(CCCC[NH3+])nn3)CC2)nc(N2CCN(C(=O)Cn3cc(CC(C)O)nn3)CC2)n1.[Cl-]` (centres unmarked), “hERG current change (%, negative = inhibition) at 10uM” value -16.7%. Against it:
- Br.COCCCN1Cc2ccccc2C1=N — higher, -12.4%
- COc1ccccc1OCC(=O)N(Cc1nc(-c2ccccc2)no1)C(C)C — higher, -12%
- COc1ccc(C=O)cc1CSc1nnc(COc2cccc3cccnc23)o1 — higher, -1.44%
- COc1ccc(/C(C)=N/OCC(=O)Nc2nc3ccccc3s2)cc1 — higher, -3.03%
- COc1ccccc1CN1CC(C(=O)N(CCO)Cc2cccs2)CCC1=O (centres unmarked) — higher, 10.1%
- Cc1ccc2cccc(S(=O)(=O)n3nc(C)cc3C)c2n1 — higher, -11.7%
- Cc1ccc(NC(=O)COc2ccccc2C#N)cc1S(=O)(=O)N1CCCCCC1 — lower, -23.3%
- O=C(COC(=O)/C=C/c1ccc(Br)o1)Nc1ccccc1F — higher, -13%
- Cc1cc(C)cc(NC(=O)Nc2cccnc2)c1 — higher, 10.9%
- CC1CCN(C(=O)c2ccc(N3C(=O)c4ccccc4C3=O)cc2)CC1 — higher, 8.06%
- CCc1nnc(SCc2cn3c(C)cc(C)nc3n2)n1N — higher, 13.5%
- O=C(Nc1ccc(F)cc1)C1C2CCC3C(CCC21)C3(Cl)Cl (centres unmarked) — higher, 20%
- CCCN(C(=O)CCCSc1nc2ccccc2[nH]1)c1c(N)n(Cc2ccccc2)c(=O)[nH]c1=O — higher, 8.76%
- Cc1cccc(C(=O)Oc2cccc3c(O)cccc23)c1 — higher, 19.2%
- Cc1ccccc1-c1ccc(C(=O)Nc2cccc(F)c2)o1 — lower, -18.3%
- COc1ccc(NC(=O)c2cc(-c3cc(Cl)ccc3O)n[nH]2)c(OC)c1 — higher, 18.5%
- Cc1ccc(S(=O)(=O)c2nnn3c2nc(N2CCOCC2)c2ccccc23)cc1 — higher, -2.95%
- O=C(O)C1C2C=CC(C2)C1C(=O)NCCCc1ccccc1 (centres unmarked) — higher, 1.48%
- COc1ccc(Cl)cc1C(=O)Nc1cc(=O)n(C)c(=O)n1C — higher, -3.64%
- CC(NC(=O)c1ccc(N2CCCC2)c([N+](=O)[O-])c1)c1ccc(S(N)(=O)=O)cc1 (centres unmarked) — higher, -5.02%
- O=C(Nc1cnn(Cc2ccc(F)cc2)c1)c1cc2nc(-c3ccco3)cc(C(F)(F)F)n2n1 — higher, 17.5%
- COc1cccc(NC(=O)CN(C)C(=O)c2c(-c3c(F)cccc3Cl)noc2C)c1 — higher, 0.173%
- CCCCc1cc(=O)oc2cc(OCC(=O)NCc3ccccn3)c(Cl)cc12 — higher, 18%
- CCOC(=O)C1=C(COC(=O)CNC(=O)c2ccc(C)cc2)NC(=O)NC1C (centres unmarked) — higher, 23.4%
- Cc1cc(CSc2ccccc2)ccc1NC(=O)c1ccc(C)c([N+](=O)[O-])c1 — higher, 11.6%
- c1cnc2ccc(C(c3nnnn3C3CCCC3)N3CCN4CCCC4C3)cc2c1 (centres unmarked) — lower, -45.2%
- COc1ccc(-c2cn(CCCOCc3ccccc3)nn2)cc1 — lower, -36.6%
- CCC(CC)C(=O)Nc1cc(C(=O)OC)ccc1C(=O)OC — higher, -15.4%
- Cc1cccc(NC(=O)Cn2nnc(C(=O)Nc3ccc(F)c(Cl)c3)c2N)c1 — higher, 16.8%
- CC(=O)Nc1ccccc1OCC(=O)NCC(F)(F)F — higher, 26.5%
- CS(=O)(=O)N(CC(=O)NCCSCc1ccccc1)c1ccccc1F — higher, 2.39%
- O=C(NCC1CCCO1)/C(=C\c1ccccc1)NC(=O)c1ccccc1 (centres unmarked) — higher, -8.85%
- Cc1ccc(S(=O)(=O)NNC(=O)Nc2ccc(C)c(C)c2)c(C)c1 — lower, -24.9%
- CC(C)Oc1ccc(C(=O)Nc2nnc(SCC(=O)N3CCOCC3)s2)cc1 — higher, 1.12%
- CCCCN(CCCC)Cc1ccc(C(=O)NNC(=O)Nc2ccc(F)cc2)o1 — lower, -30%
- CCCCOC(=O)Nc1ccc(N(C)C)cc1 — higher, 0.397%
- Cc1cc(C(=O)COc2ccc(F)cc2Br)c(C)n1C — higher, 8.27%
- O=C(O)c1ccccc1-c1ccccc1C(=O)Nc1ccccc1-c1ccccc1 — higher, 19.8%
- O=C(COc1ccc2ccccc2c1)NC1CC1 — higher, 2.77%
- COc1ccc(N2CCN(CCCNC(=O)Cn3c(=O)c4cccn4c4ccccc43)CC2)cc1 — lower, -43.7%
- Nc1nc(NC(=O)c2ccc(F)cc2)ns1 — higher, 7.86%
- CCOCCc1c(O)nc(SC)[nH]c1=O — higher, 15.9%
- O=C(CN(C(=O)CCC(=O)Nc1ccccn1)c1ccc(F)cc1)NCCc1ccccc1 — higher, 16.8%
- COCCNC(=O)c1cn(C)c2ccc(S(=O)(=O)N3CCCC3)cc2c1=O — higher, 11.6%
- O=C1CSC(c2cccnc2)N1Cc1ccc(Cl)cc1Cl (centres unmarked) — higher, 0.0731%
- Cc1nnc(SCCN2C(=O)c3ccccc3C2=O)nc1C — higher, -1.84%
- CCOC(=O)c1cccc2c1-c1ccccc1/C2=N/O — higher, -2.26%
- COc1ccc(NC(=O)CSc2nc3c(c(=O)n2-c2ccc(F)cc2)SCC3)c(OC)c1 — lower, -19.7%
- Cc1ccc(Cn2nc(C)c(NC(=O)c3cc(C)no3)c2C)cc1 — higher, -2.22%
- CC1(C)CC2(CC(c3ccccc3)Oc3cc(O)ccc32)NC(=S)N1 (centres unmarked) — higher, -1.82%
- CN1CCC(N(C)S(=O)(=O)c2ccc(F)cc2F)CC1 — higher, 3.63%
- CN(C)c1ccnc2sc3c(SCc4ccc(Cl)cc4)ncnc3c12 — higher, 11.5%
- CCC(C)N(C(=O)CSc1nc(C)c(C)c(C)c1C#N)C1CCS(=O)(=O)C1 (centres unmarked) — higher, 8.92%
- Cc1ccc(-n2c(Cn3ncc4ccccc4c3=O)n[nH]c2=S)cc1 — higher, -2.75%
- CC(=O)c1cc2c(cc1NS(=O)(=O)c1ccc(C)cc1)OCO2 — higher, -10.1%
- COc1ccc(OC)c(Nc2nc(NCCCN(C)C)nc(N)c2[N+](=O)[O-])c1 — higher, -5.73%
- COc1ccccc1N(CC(=O)N/N=C/c1ccc(SC)cc1)S(C)(=O)=O — higher, -3.36%
- COc1cccc(C(C(=O)NC2CCCC2)N(C(=O)c2ccco2)c2cccc(C(C)=O)c2)c1OC (centres unmarked) — higher, 13.9%
- O=[N+]([O-])c1ccc(/C=C/c2ccc3cccc(O)c3n2)cc1 — higher, 18.6%
- COc1cc(C(=O)OC2CSCC2NC(=O)c2ccccc2)cc(OC)c1OC (centres unmarked) — lower, -19.5%
- O=C(Nc1ccc(NC(=O)C2CC2)nc1)c1ccccn1 — higher, -8.12%
- CN(C)CCN1C(=O)C(=O)/C(=C(/O)c2ccc(S(=O)(=O)N3CCOCC3)cc2)C1c1ccc(Br)cc1 (centres unmarked) — higher, 10%
- Cn1c(SCC(=O)N2CCOCC2)nnc1-c1ccccc1 — higher, 4.92%
- O=C(O)CN1C(=O)CN=C(c2ccccn2)c2cc(Cl)ccc21 — higher, 17.5%
- O=c1nc(-c2ccccc2)cc(C(F)(F)F)[nH]1 — higher, 17.8%
- CCOc1ccc(-n2nnnc2-c2nc3ccccc3s2)cc1 — higher, 11.9%
- CC(=O)c1cccc(NC(=O)N2CC(C)OC(C)C2)c1 (centres unmarked) — higher, 10.4%
- Cn1cnc([N+](=O)[O-])c1N=C(N)N — higher, 17.5%
- O=C(CSCc1c(F)cccc1F)Nc1ccccc1 — higher, 12.3%
- COc1ccc(CCNC(=O)Cn2nc([N+](=O)[O-])c(Br)c2C)cc1OC — higher, -0.503%
- Cc1ccc(CC(=O)NCc2ccc(F)cc2)cc1 — higher, 5.55%
- CCCc1nnc(SCC(=O)Nc2cccc(Cl)c2Cl)o1 — higher, 3.7%
- CCN(CC(=O)NCc1ccc(F)cc1)C(=O)C1CCN(C(=O)Nc2ccccc2)CC1 — higher, -7.79%
- Cc1csc2nc(O)c(C(=O)NCC3CCCO3)c(=O)n12 (centres unmarked) — higher, 1.89%
- C=CCC(CC=C)(NC(=O)c1ccccc1)c1ccccc1 — higher, 4.4%
- Cc1ccc(C(=O)/C=C2\NCC(C)NC2=O)cc1 (centres unmarked) — higher, 6.43%
- CN(Cc1nc2ccccc2n1C)C(=O)c1ccco1 — higher, 16.5%
- CCOC(=O)C1CCCN(C(=O)CSCc2ccccc2)C1 (centres unmarked) — higher, 0.048%
- CC1c2cc3c(cc2CCN1CC(=O)Nc1ccc(S(=O)(=O)N2CCCC2)cc1)OCCCO3 (centres unmarked) — higher, 3.55%
- CNC(=O)Nc1cc(C(C)(C)C)no1 — higher, 8.95%
- Cn1c(=NC(=O)CSCC(=O)N2CCCC2)sc2ccccc21 — higher, -5.34%
- COc1cc(OC)cc(C(=O)NNC(=O)C(=O)Nc2cc(OC)c(Cl)cc2OC)c1 — higher, 16.8%
- CCNCC(=O)Nc1ccc(N2CCOCC2)cc1 — higher, 25.9%
- CC(=O)N1CCc2cc(C(=O)CN3CCN(c4ccccn4)CC3)ccc21 — higher, -2.87%
- Cc1ccc2nc3c(cc2c1)c(NC(=O)c1cccnc1)nn3C — higher, -1.27%
- Cc1ccc(C2(C)NC(=O)N(CC(=O)Nc3ccc(-c4nc5ccc(C)cc5s4)cc3)C2=O)cc1 (centres unmarked) — higher, 17.4%
- O=C(Nc1ccc2c(c1)OCCO2)c1coc2ccccc2c1=O — higher, -0.238%
- CNCCCOc1ccc2c(c1)CCC2.O=C(O)C(=O)O — higher, 0.363%
